According to article PMC4336329 (PLoS ONE, 2015):
Among all 310,000 compounds or so, about 14,000 (4.5%) showed an effect of 50% or more. The effect is printed as a negative number. The list shows a part of the results.

biological target: human ether-à-go-go-related gene (hERG) potassium channel (human, UniProt Q12809); test: primary screen, population patch clamp on CHO cells stably expressing hERG
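Also: peak tail current of the secondary pulse compared with the same well before compound.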

Chain of human ether-à-go-go-related gene (hERG) potassium channel (Q12809 whole entry, looked up): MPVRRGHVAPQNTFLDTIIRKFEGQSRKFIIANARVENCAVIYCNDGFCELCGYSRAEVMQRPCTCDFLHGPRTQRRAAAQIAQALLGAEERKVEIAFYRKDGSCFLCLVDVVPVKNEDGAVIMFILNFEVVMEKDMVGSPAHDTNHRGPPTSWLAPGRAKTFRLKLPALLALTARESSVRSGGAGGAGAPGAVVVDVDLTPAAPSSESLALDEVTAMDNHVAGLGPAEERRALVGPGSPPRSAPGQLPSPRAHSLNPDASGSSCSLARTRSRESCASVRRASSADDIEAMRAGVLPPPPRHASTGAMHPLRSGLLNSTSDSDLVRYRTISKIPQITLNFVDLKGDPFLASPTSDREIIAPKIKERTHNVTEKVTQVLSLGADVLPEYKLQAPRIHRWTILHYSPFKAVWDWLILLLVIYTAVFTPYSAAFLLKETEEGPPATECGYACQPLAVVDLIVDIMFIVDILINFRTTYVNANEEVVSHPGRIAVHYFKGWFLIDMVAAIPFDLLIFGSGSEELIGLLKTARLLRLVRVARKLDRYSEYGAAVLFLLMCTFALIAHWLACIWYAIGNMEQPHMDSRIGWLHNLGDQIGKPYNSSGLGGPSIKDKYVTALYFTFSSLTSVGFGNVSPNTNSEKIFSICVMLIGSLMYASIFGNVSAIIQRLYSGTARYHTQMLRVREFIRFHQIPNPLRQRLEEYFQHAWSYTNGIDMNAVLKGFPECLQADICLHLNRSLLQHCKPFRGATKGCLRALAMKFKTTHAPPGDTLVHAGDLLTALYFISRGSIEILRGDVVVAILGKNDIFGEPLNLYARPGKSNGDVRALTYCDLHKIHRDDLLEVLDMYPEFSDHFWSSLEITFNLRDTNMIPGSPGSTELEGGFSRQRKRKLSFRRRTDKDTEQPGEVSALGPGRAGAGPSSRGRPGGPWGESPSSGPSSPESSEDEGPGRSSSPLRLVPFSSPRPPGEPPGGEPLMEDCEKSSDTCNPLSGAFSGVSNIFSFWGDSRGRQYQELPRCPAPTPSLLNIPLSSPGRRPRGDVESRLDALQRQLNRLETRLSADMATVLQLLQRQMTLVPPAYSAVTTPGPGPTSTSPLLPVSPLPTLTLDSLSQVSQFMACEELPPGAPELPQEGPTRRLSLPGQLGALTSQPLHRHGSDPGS

| SMILES | hERG current change (%, negative = inhibition) at 10uM |
| --- | --- |
| Cc1ccc(CNS(=O)(=O)c2ccc(C)s2)cc1 | -2.79% |
| COC(=O)c1ccc(COC(=O)C2CCN(S(=O)(=O)c3c(Cl)cccc3Cl)CC2)o1 | -7.62% |
| COc1ccc(CCNC(=O)C2CC3Cn4c(nc5ccccc54)C3N2C)cc1 (stereo not drawn) | -8.64% |
| O=C(N/N=C/c1ccc(Cl)cc1Cl)c1ccncc1 | -7.34% |
| COCCN(CC(=O)Nc1ccccc1C(F)(F)F)C(=O)c1ccc(-n2cccn2)cc1 | -18.8% |
| CC1CCN(C(=O)Cn2nnc(-c3cccs3)n2)CC1 | -0.924% |
| Cc1ccccc1NS(=O)(=O)c1ccc(C(=O)NN2CCCCC2)cc1 | 15.3% |
| Cl.O=C(CSC1=NCCN1)NC12CC3CC(CC(C3)C1)C2 | -21.1% |
| C=CCn1c(C)cc(C(=O)COc2ncnc3sccc23)c1C | -6.15% |
| COc1ccc(CNC(=O)CCS(=O)(=O)Cc2ccc(C)cc2)c(OC)c1 | -20.6% |
| O=P(O)(C(O)c1ccccc1)C(O)c1ccccc1 (stereo not drawn) | 0.999% |
| Cc1cc2cc(CNC(=O)c3ccc(S(=O)(=O)N4CCOCC4)cc3)ccc2[nH]1 | 6.35% |
| CC(NC(=O)Nc1ccccc1)C(c1cccs1)N1CCOCC1 (stereo not drawn) | -3.94% |
| CC1CN(C(=O)c2cccc(S(=O)(=O)NCc3ccccc3)c2)CC(C)O1 (stereo not drawn) | -6.85% |
| COc1cccc(NC(=O)CCN2C(=O)c3ccc([N+](=O)[O-])cc3C2=O)c1 | -6.47% |
| COc1ccccc1C(=O)N/C(=C/c1ccc2c(c1)OCO2)C(=O)Nc1cccc(C(=O)O)c1 | -4.02% |
| Cc1cc(-c2cccc(Br)c2)c(C#N)c(N)n1 | 18.1% |
| COc1ccc(OC)c(NC(=O)C2C3C=CC(C3)C2C(=O)NCc2ccccn2)c1 (stereo not drawn) | 6.15% |
| COc1ccc(CC(=O)NCc2n[nH]c(=S)n2C)cc1 | 21.5% |
| COc1ccc(NC(=O)CN(C)C(=O)c2ccc(N3CCCC3)c([N+](=O)[O-])c2)cc1 | -54% |
| COc1cccc(NC(=O)COC(=O)CC(NC(N)=O)c2ccc(Cl)cc2)c1 (stereo not drawn) | -2.18% |
| CCOc1ccc(Oc2cc(C)nc(SC)n2)nn1 | 10.5% |
| CC(=O)c1ccc(N2CCN(CC(=O)Nc3ccc4c(c3)OCCO4)CC2)cc1 | 5.06% |

| SMILES | hERG current change (%, negative = inhibition) at 10uM |
| --- | --- |
| COc1ccc(C(N)=O)c(OCC(=O)Nc2cc(C)on2)c1 | 3.75% |
| CC(C)(C)NC(=O)Cn1c(=O)c(=O)n(Cc2ccccc2)c2ccc(Cl)cc21 | -0.233% |
| CC(=O)c1sc(NC(=O)c2cc(S(=O)(=O)N3CCOCC3)ccc2F)nc1C | -1.54% |
| Cc1nc(N)[nH]c(=O)c1Oc1cccc(C(F)(F)F)c1 | 6.79% |
| COc1ccc(Cl)cc1NC(=O)CN(C)C(=O)CSc1ccc2c(c1)OCCO2 | -19.5% |
| O=C(OCCCOC(=O)c1ccc(Br)o1)c1ccc(Br)o1 | -43.2% |
| O=S(=O)(NCCN1CCCC1)c1ccc(Cl)cc1 | 10.3% |
| COc1ccccc1OCC(=O)N/N=C1/SCC(=O)N1Cc1ccccc1 | -18.6% |
| COc1ccc2c(C(=O)CN3CCN(c4ccccc4)CC3)c[nH]c2c1 | -10.3% |
| COc1ccc(CCNC(=O)C2CCCN2C(=O)Nc2ccc(C)cc2)cc1OC (stereo not drawn) | 19.2% |
| O=C(/C=C/Nc1ccc(F)cc1)c1cccs1 | 7.59% |
| Nc1ccc2nc3c(=O)n(CCc4ccccc4)c(=O)[nH]c3nc2c1 | -12.4% |
| COC(=O)c1cccc(CSC(=S)N2CCCC2)c1 | -28.3% |
| O=C(COc1ccc([N+](=O)[O-])cc1)NCCc1nc2ccccc2[nH]1 | -56.7% |
| Cc1ccc(NCCC(=O)c2ccc(Cl)c(Cl)c2)cc1 | -0.536% |
| CC(C)[N+]12CCC(CC1)C(C(O)(c1ccccc1)c1ccccc1)C2.[I-] (stereo not drawn) | 16.9% |
| CCOc1nc(C)ccc1-c1noc(-c2ccccn2)n1 | 6.02% |
| Cc1ccc(SCC(=O)NNC(=O)C2CCCCC2)cc1 | -3.61% |
| Cn1c(=O)c2cc(S(=O)(=O)N3CCC(c4ccccc4)CC3)ccc2n(C)c1=O | -2.67% |
| Cc1ccc(-n2c(C)nn(CC#N)c2=O)cc1 | 18.7% |
| O=C(COC(=O)CCC1CCCC1)NCc1ccc(Cl)cc1 | 5.85% |
| Cc1c(NC(=O)C2CCCO2)cccc1[N+](=O)[O-] (stereo not drawn) | 9.31% |
| COc1cccc(CC(=O)OCC(=O)NC2(C#N)CCCCC2)c1 | 16.5% |

| SMILES | hERG current change (%, negative = inhibition) at 10uM |
| --- | --- |
| CC(C)(C)CN1CCNC(=O)C1CC(=O)NC1Cc2ccccc2C1 (stereo not drawn) | 4.08% |
| O=c1cnnc(Nc2cccc(F)c2)[nH]1 | 25.3% |
| O=Cc1ccc(Oc2ccc(F)cc2)nc1 | 11.1% |
| CCOc1cc(S(=O)(=O)NCCc2ccc(OC)c(OC)c2)c(OCC)cc1-n1cnnn1 | 2.67% |
| Cc1ccc2nc(-c3ccc(NC(=O)CN4C(=O)c5ccccc5C4=O)cc3)sc2c1 | -0.222% |
| O=C(c1ccccc1F)N1CCN(c2ccc([N+](=O)[O-])c3cccnc23)CC1 | -65.5% |
| CCC[C@H](CN[C@@H](CNC)[C@H](C)O)NCCc1ccc(OC)cc1 | 2.16% |
| O=C(CCN1C(=O)c2cccc3cccc(c23)C1=O)NC1CCS(=O)(=O)C1 (stereo not drawn) | 2.16% |
| CCC(=O)N(Cc1cc2cc(OC)ccc2[nH]c1=O)c1cccc(C)c1 | -20.6% |
| O=[N+]([O-])c1cccc(-n2nnnc2CN2CCCCCC2)c1 | -28.5% |
| Cc1nn(Cc2ccccc2)c2c1C(c1cccc(Cl)c1)C(C#N)=C(N)O2 (stereo not drawn) | 0.533% |
| COc1ccc(S(=O)(=O)NCc2nc3nc(C)cc(C)n3n2)cc1OC | 5.21% |
| C=CCc1cccc(C2Nc3ccccc3C(=O)N2O)c1O (stereo not drawn) | 7.52% |
| S=c1nc[nH]c2c1ncn2C1CCCC1 | 19.6% |
| C=CCNCCOc1cccc(Br)c1 | -4.37% |
| CCOC(=O)c1c(NC(=O)CSc2nnc(-c3cccnc3)o2)sc(C(C)=O)c1C | -46.1% |
| O=C(CSc1nnc(Cc2ccccc2)n1Cc1ccco1)NC1CCCC1 | -4.94% |
| Cc1[nH]nc2c1C(c1ccc(F)cc1)C(C#N)=C(N)O2 (stereo not drawn) | -1.43% |
| O=C(Nc1nc2cc3c(cc2s1)OCCO3)c1cccs1 | 7.38% |
| CCOc1cc(/C=C2\SC(=Nc3ccc(CC)cc3)NC2=O)ccc1OCC(=O)O | 19.9% |
| COc1ccccc1NC(=O)Nc1sccc1-c1nc2ccccc2s1 | 30.1% |
| c1ccc(-c2csc3ncnc(N4CCOCC4)c23)cc1 | -13.9% |
| COc1ccc(/C=C/C(=O)NCc2c(C)nn(C)c2C)cc1COc1ccc(Br)cc1 | -0.998% |

| SMILES | hERG current change (%, negative = inhibition) at 10uM |
| --- | --- |
| C[C@@H](C(=O)NCc1ccccn1)[C@H]1C[C@]1(C)[C@H](NC(=O)OCc1ccccc1)c1ccccc1 | -8.22% |
| Cn1c(Cn2c(=O)sc3ccccc32)nnc1SCC(=O)NCc1ccccc1Cl | -12.9% |
| C[n+]1c2ccccc2nc2ccc(NCCO)cc21.[O-][Cl+3]([O-])([O-])[O-] | 21.7% |
| CC(C)CC(=O)Nc1nnc(SCC(=O)Nc2nccs2)s1 | 7.61% |
| CCOC(=O)c1[nH]cnc1C(=O)NC(C)C | -4.31% |
| O=C(NCNC(=O)c1ccccc1)c1ccccc1 | 19.8% |
| CCOc1ccc(S(=O)(=O)Nc2ccccc2C(=O)Nc2ccccc2N2CCOCC2)cc1 | -9.11% |
| COc1ccc(NC(=O)CC2SC(N3CCOCC3)=NC2=O)cc1OC (stereo not drawn) | 9.88% |
| CCN=C1SC(C(N)=O)CC(=O)N1CC (stereo not drawn) | 12.9% |
| CC12CCC(=O)N1C(C(=O)N1CCN(S(=O)(=O)c3ccccc3F)CC1)CS2 (stereo not drawn) | -30.1% |
| Cc1ccc(C(=O)C(C)Oc2cccc(NC(=O)c3ccco3)c2)cc1 (stereo not drawn) | -13.4% |
| C/C(=N\NC(=O)Cc1ccc([N+](=O)[O-])cc1)c1cccnc1 | -13.8% |
| O=C(NCC1CCCO1)c1cccc(C(=O)NCC2CCCO2)c1 (stereo not drawn) | 3.37% |
| c1ccc(-c2cnnn2-c2ccccc2)cc1 | 12.7% |
| CCN(CC)S(=O)(=O)c1cc(NC(=O)c2ccc(Br)s2)ccc1C | 38.2% |
| Cc1ccc(S(=O)(=O)N2CCC(=O)N(CCOC(=O)Nc3cc(C)cc(C)c3)CC2)cc1 | -40.7% |
| Cc1nonc1NC(=O)CSc1cn[nH]n1 | 9.72% |
| C=CCN(CC=C)C(=O)Nc1cc(OC)ccc1OC | 4.66% |
| CN(C)CCNC(=O)/C(=C/c1ccc(-c2ccc(Cl)cc2)o1)NC(=O)c1ccccc1 | -80.9% |
| C=CCn1c(SCC(=O)Nc2cccc3ccccc23)nnc1-c1cnccn1 | -39.9% |
| Cc1onc(-c2ccccc2Cl)c1C(=O)NCc1nc(-c2ccccc2)no1 | -0.145% |
